Measured values: a collection of fitness landscapes (doi:10.1016/j.celrep.2020.107928)
The full ranking holds about 81,000 sequences; the median of “one-hybrid fitness for binding NBS DNA” is about -0.1, and the highest 2% start at about 0.36. Some of the results follow.

B1: Caulobacter ParB omega fusion; a variant is named by its letters at X, in order, B8GW30 (parent)
chain: MESVVVGEPGMSEGRRGLGRGLSALLGEVDAAPAQAPGEQLGGSREAPIEILQRNPDQPRRTFREEDLEDLSNSIREKGVLQPILVRPSPDTAGEYQIVAGERAWRAAQRAGLKTVPIMVRELDDLAVLEIGIIENVQRADLNVLEEALSYKVLMEKFERTQENIAQTIGKSXSHVANXMRLLXLPDEVQSYLVSGELTAXHARAIAAAADPVALAKQIIEGGLSVRETEALARKAPNLSAGKSKGGRPPRVKDTDTQALESDLSSVLGLDVSIDHRGSTGTLTITYATLEQLDDLCNRLTRGI

Variants of: B1
Assay: one-hybrid fitness for binding NBS DNA (the Noc-binding site; scaled: cognate 1, non-cognate 0); higher = stronger binding
Conditions: with NBS DNA site
How it was run: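 Values were rescaled so that cognate is 1 and non-cognate is 0. Each is a fitness, the log change in a variant's read ratio to wild type from Illumina reads of plasmids before and after selection, with three replicate libraries pooled and variants under 10 reads dropped. Selection of the Caulobacter ParB libraries, four specificity codons randomised, used E. coli USO with a HIS3 reporter, site 19 bp from the promoter, on M9-minus-histidine with 0.1 mM IPTG and 5 mM 3-AT for 48 hours at 37°C.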

one-hybrid fitness for binding NBS DNA, 0.207:
IKRR

one-hybrid fitness for binding NBS DNA, 0.393:
RRWC

one-hybrid fitness for binding NBS DNA, 0.487:
QLKH

one-hybrid fitness for binding NBS DNA, 0.446:
RTRA

one-hybrid fitness for binding NBS DNA, 0.289:
RCIT

one-hybrid fitness for binding NBS DNA, 0.564:
RARS

one-hybrid fitness for binding NBS DNA, 0.439:
QFFR

one-hybrid fitness for binding NBS DNA, 0.376:
RCFR

one-hybrid fitness for binding NBS DNA, ≤ 0.2:
DEIG
VKDC
DNNC
YSIF
GKWS
RLNF
RERE
LYSI
QNLI
RSAV
IPAP
PTCV
HMSK
PDSF
ARGL
PLSR
HGAR
AHKH
WGIH
NRKI
EELR
MQYT
ATIS
DHRC
YFRD
VYNR
AYWR
SNGC
PAYT
FGYW
NQHI
TYQR
VQNE
SGEK
ETRV
TLRR
RQAV
HPLI
NDVY
NHKP
WASL
AQQC
QPAE
VPYA
WPRR
VTET
PFTG
PSRI
IRKG
RLEM
TKQC
GNKS
TTYL
RKWN
TLGM
SCPH
EMAL
PDYF
HTSG
TCDG
QSWH
WSQL
PRVC
PTNM
RVGM
PVVR
RASW
RMNG
TSSY
KDPR
EGPA
RQPR
ASSS
HDSY
LWAA
DCCR
NGTR
DASN
LMLY
LAML
NCTS
DAVY
SMAC
TTDG
FGIT
WFPC
PPWS
QPNS
STQS
RLMQ
ELQY
NTRN
DTMI
QPKK
AEAC
PCED
KDPW
SGIT
SSMF
RDDV
TDHC
RPRS
KWAG
RKAM
TSTL
ALEN
WYCE
STLI
YKRT
HHHC
LFRM
MADP
NIWV
ILLC
QKPN
HRKC
CHEL
KQVR
RIPQ
DKVG
YVPC
VKAG
SFCD
TPPV
IATF
SYPE
NMAS
CGMR
DLNP
KMNK
PCRV
TIPR
RYRW
SEDV
PCWS
FGDS
NYQS
TYTM
FRMT
NHLD
AAMW
QNGG
HLIT
TQTM
QGWV
PMVK
RSCF
ERKG
VYHV
VHMM
AGST
IADM
KDSM
NSKF
QMSK
TTNK
FSGG
PWMC
HAHG
LNTH
ALFR
FCRL
TCKY
LGKR
TKLC
KENY
FNSR
FKKA
NMRG
PMCL
GSSH
TVTS
TRGC
GMCR
DRVW
QIWW
NHMR
RLKM
CVFR
SCRY
SMQN
VRHW
WQTP
FCMC
RLQV
GYHF
WDTS
